Measurements as given in paper PMC6919601, “Identification of Plasmodium dipeptidyl aminopeptidase allosteric inhibitors by high throughput screening” (PLoS ONE, 2019).
Among all 110,000 compounds or so, about 230 (0.21%) showed an effect of 50% or more. The list shows a part of the results.

Target: DPAP1 (Plasmodium falciparum, UniProt Q8IIJ9)
Test: primary screen, percent inhibition; read by cleavage of a fluorogenic dipeptide substrate; higher = more effect of the substance
Design: species or system P. falciparum D10 trophozoite lysates; single well
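Further: 30 min substrate incubation versus DMSO and 10 µM JCP410 controls.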

Chain of DPAP1 (Q8IIJ9 whole entry, looked up): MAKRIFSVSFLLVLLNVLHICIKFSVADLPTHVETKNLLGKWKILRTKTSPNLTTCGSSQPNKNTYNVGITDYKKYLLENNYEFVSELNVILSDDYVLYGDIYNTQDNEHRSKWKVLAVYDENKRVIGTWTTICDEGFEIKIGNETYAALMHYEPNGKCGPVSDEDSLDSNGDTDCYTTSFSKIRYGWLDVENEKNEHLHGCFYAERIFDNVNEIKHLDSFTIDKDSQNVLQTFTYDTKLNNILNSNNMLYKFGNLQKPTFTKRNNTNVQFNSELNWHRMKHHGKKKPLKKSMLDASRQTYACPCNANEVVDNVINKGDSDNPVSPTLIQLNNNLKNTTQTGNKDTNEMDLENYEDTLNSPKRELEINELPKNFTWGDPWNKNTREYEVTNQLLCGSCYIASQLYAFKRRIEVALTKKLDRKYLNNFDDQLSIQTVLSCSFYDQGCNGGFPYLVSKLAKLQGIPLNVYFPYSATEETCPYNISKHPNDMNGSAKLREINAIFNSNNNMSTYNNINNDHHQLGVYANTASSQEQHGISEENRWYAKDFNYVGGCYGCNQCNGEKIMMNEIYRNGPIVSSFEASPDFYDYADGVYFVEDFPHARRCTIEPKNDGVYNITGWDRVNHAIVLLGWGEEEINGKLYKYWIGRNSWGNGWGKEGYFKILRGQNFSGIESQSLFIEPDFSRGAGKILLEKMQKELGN

| SMILES | % Inhibition @ 10 uM [%] |
| --- | --- |
| Cn1c(SCC(=O)NCc2ccccc2)nnc1-c1ccc(C(C)(C)C)cc1 | 0.0719 |
| CC1(C)Cc2ccccc2C(/C=C(\O)c2ccccc2[N+](=O)[O-])=N1 | -3.27 |
| O=C(Nc1cc(F)ccc1F)c1cccc(OC(F)F)c1 | -1.6 |
| CC(C)NCC(=O)C12CC3CC(CC(C3)C1)C2 | -0.711 |
| Cc1oncc1C(=O)Nc1ccc(C(C)(C)C)cc1 | -3.45 |
| O=C(N/C(=C\c1ccccc1)C(=O)N1CCN(c2ccccc2)CC1)c1ccccc1 | 4.09 |
| O=C(Nc1ccc(CN2CCOCC2)cc1)c1ccc(Cl)cc1Cl | -5.27 |
| Cc1cc(C(=O)NCCCN2CCCC(C)C2)c2c(C)nn(-c3cccc(Cl)c3C)c2n1 (centres unmarked) | 4.52 |
| CCc1cc2c(cc3c(=O)n(CC(=O)NCc4ccc(OC)c(OC)c4)ncn32)s1 | 3.29 |
| O=C(NC1(C(F)(F)F)N=C(c2ccccc2)NC1=O)C1CCCCC1 (centres unmarked) | 3.21 |
| CCC(C)N(CCNC(=O)Cn1c(=O)c2cccn2c2cccnc21)C1CCCCC1 (centres unmarked) | -2.1 |
| CCOc1c(NC2CCCCC2)c(=O)c1=O | 1.2 |
| Cc1ccccc1Cc1c(C)nc2nc(SCC(=O)NCC3COc4ccccc4O3)nn2c1C (centres unmarked) | -3.48 |
| Cc1nc2ccn(Cc3cccnc3)c(=O)c2cc1C(=O)NCCC(C)C | 0.234 |
| CCOc1ccc2sc(NS(=O)(=O)c3ccc(OC)c(OC)c3)nc2c1 | -1.94 |
| Cc1ccc2c(=O)c(C(=O)c3ccccc3)cn(CC(=O)NCCc3ccccc3)c2n1 | 3.03 |
| O=C1CC(c2ccc(Cl)c(Cl)c2)C2=C(CC(c3ccc(F)cc3)CC2=O)N1 (centres unmarked) | 3.67 |
| COc1cccc(-c2cn3c(n2)sc2cc(C(=O)NCCc4ccc(OC)cc4OC)ccc23)c1 | -1.78 |
| COc1ccc(CNc2nc(-c3cccs3)cc(C(F)(F)F)n2)cc1 | -1.31 |
| O=C1N=C(Nc2ccc(F)cc2)S/C1=C\c1cc2c(cc1Cl)OCO2 | 8.69 |
| Cc1cc(-c2ccc(C)c(S(=O)(=O)NCCc3cccs3)c2)on1 | -7.66 |
| C=CCn1c(SCC(=O)N2CCC(C)CC2)nnc1-c1ccccc1O | -3.53 |
| CC(C)N(CC#CCO)Cc1ccccc1 | -5.41 |
| Cc1cccc(Oc2ccc(C#N)c(C#N)c2)c1C | 1.63 |
| Cc1sc2ncnc(Nc3ccc(Cl)cc3Cl)c2c1C | -2.55 |
| CCOC(=O)N1CCC(N2CC(C)CC(C)C2)CC1 (centres unmarked) | -6.62 |

| SMILES | % Inhibition @ 10 uM [%] |
| --- | --- |
| O=C(NS(=O)(=O)c1cc2c(cc1Cl)NCNS2(=O)=O)c1ccc([N+](=O)[O-])cc1 | -2.15 |
| O=C(CSCc1cnn(-c2ccccc2)c1-n1cccc1)N1CCN(c2ccccn2)CC1 | -1.08 |
| CCOC(=O)c1cc(-c2ccc(F)cc2)n(CC(=O)Nc2nnc(SCC)s2)c1C | -0.176 |
| COc1ccc(C(=O)Cn2c(N(CCO)CCO)nc3c2c(=O)n(C)c(=O)n3C)cc1 | -1.46 |
| CC1(C)N=C(c2ccc(Cl)cc2Cl)C(=S)N1 | 0.559 |
| O=C(O)COc1ccc(Br)cc1 | -0.0372 |
| CCCCn1c(SCC(=O)c2ccccc2)nc2ccsc2c1=O | 3.86 |
| CCn1c2ccccc2c2cc(CN3CCN(c4ccc(OC)cc4)CC3)ccc21 | -2.81 |
| Cc1nccn1S(=O)(=O)c1cc(Cl)ccc1Cl | -1.99 |
| Cc1ccc(C)n1-c1ccc(NC(=O)c2ccccc2)cc1 | 3 |
| O=C(COc1ccc(Cl)cc1Cl)NCCc1ccccc1 | 5.02 |
| CCCCN(CCCC)CCNC(=O)C1CCN(S(=O)(=O)CC)CC1 | 3.79 |
| CC(C)c1ccc(CN2CCC(O)CC2)cc1 | 1.55 |
| CCCNC(=O)C1CCN(S(=O)(=O)c2cccc3nonc23)CC1 | -4.53 |
| O=C(NCCOc1ccc(F)cc1)c1cccc2ccccc12 | -8.38 |
| CC(=O)c1cnc2ncnn2c1C | 4.74 |
| O=C(Nc1cccnc1Cl)c1cc(-c2cccnc2)on1 | -10 |
| COc1ccc(C2C(C(=O)c3ccccc3)=C(O)C(=O)N2c2ccc(F)cc2)c(OC)c1 (centres unmarked) | -0.173 |
| Cc1ccccc1NC(=O)/C=C1/c2ccccc2CC(C)(C)N1C | -0.436 |
| N=C(Cc1cccc2ccccc12)NOC(=O)c1ccc(F)cc1 | 3.79 |
| CCCCCCN1C(=O)NC(=O)/C(=C\c2ccc(OC)cc2OC)C1=O | -5.96 |
| COc1ccc(NC(=O)c2cccc(S(=O)(=O)Nc3ccc(C(=O)O)cc3)c2)cc1 | 3.25 |
| Cc1nc2ccccc2n1CCc1nc2c3ccccc3nc(N3CCOCC3)n2n1 | 0.981 |
| CC(=O)c1c(O)cc(C)o/c1=N\c1ccccc1O | -4.41 |
| N#CC1=C2SCN(C3CCCCC3)CN2C(=O)CC1c1ccccc1F (centres unmarked) | 37.8 |
| C#CCOC(=O)c1cc([N+](=O)[O-])ccc1Cl | 3.53 |

| SMILES | % Inhibition @ 10 uM [%] |
| --- | --- |
| COc1cccc(C2C=C(c3ccc(C)cc3)Nc3ncnn32)c1OC(F)F (centres unmarked) | -3.37 |
| CCOc1ccccc1C(=O)Nc1c(-c2ccc(F)cc2)nc2ccccn12 | 0.813 |
| COc1ccc(Nc2cc(C)nc3c(C)ccc(N)c23)cc1 | -1.88 |
| Cc1cc(C)n(C(C)CC(=O)NCCc2ccccc2)n1 (centres unmarked) | -1.93 |
| COc1cc(/C=C2\SC(Nc3ccc(C)c(Cl)c3)=NC2=O)ccc1OCC(=O)O | 17.9 |
| Cc1ccc(CN2CCN(c3ccccc3F)CC2)cc1 | -3.77 |
| O=C(CCc1ccccc1)N1CCN(CCO)CC1 | 5.3 |
| COc1ccc(-c2nc3scc(CCNC(=O)c4c(F)cccc4F)n3n2)cc1 | -1.46 |
| Nc1cc(-c2ccccc2)nn1CC1CCCCC1 | 2.92 |
| CCOC(=O)c1cc(C)n(CC2CCC(C(=O)N3CCc4ccccc4C3)CC2)c1C (centres unmarked) | 0.967 |
| CC(C)c1ccc(OCC(=O)N(Cc2nc(-c3ccccc3)no2)C(C)C)c(Br)c1 | 1.1 |
| O=C(NCc1cccc(Cl)c1)c1cccn1-c1nnc(N2CCCCCC2)s1 | -6.58 |
| CC1(C)C(C=C(Cl)Cl)C1C(=O)NCCCOC(=O)Nc1ccccc1 (centres unmarked) | -9.73 |
| CCSc1nnc(NC(=O)CSc2nc3ccccc3[nH]2)s1 | 3.39 |
| CCCC(=O)NCCc1nc2ccccc2n1CCC | 3.41 |
| CC(Oc1ccccc1)C(=O)Nc1cccc(NC(=O)C(C)Oc2ccccc2)n1 (centres unmarked) | 0.843 |
| COc1ccc2c(c1)CCc1c(C(=O)Nc3cc(C)nn3-c3ccccc3)noc1-2 | 1.82 |
| COc1ccc(N2CCN(C(=O)CCn3cc(Br)cn3)CC2)cc1 | -2.09 |
| CCCc1cc(O)n2nc(-c3ccccc3)nc2n1 | 1 |
| Cc1ccc(C2Nc3cccc4cccc(c34)N2)s1 | -7.27 |
| Cc1ccn2cc(CNC(=O)c3ccccc3C(F)(F)F)nc2c1 | -3.51 |
| O=C(C1CCNCC1)N1CCN(Cc2ccc3c(c2)OCO3)CC1 | -4.78 |
| O/N=C/c1ccc(OCc2ccccc2)cc1 | 6.18 |
| CC1=C(C#N)C(c2ccc(O)cc2)C2=C(O)CC(C)(C)CC2=N1 (centres unmarked) | -0.305 |
| O=C1c2ccccc2C(=O)N1c1ccccc1[N+](=O)[O-] | -2.77 |
| CCO/C(O)=C(\C#N)c1ncc(-c2ccccc2)cn1 | 2.55 |

| SMILES | % Inhibition @ 10 uM [%] |
| --- | --- |
| CCOc1ccc(CNC(=O)Cn2ncn3c(cc4cc(F)ccc43)c2=O)cc1 | 0.0198 |
| CCOCCCNc1oc(/C=C/c2ccccc2OC)nc1C#N | -0.808 |
| O=C(ON1C(=O)c2ccccc2C1=O)c1cccs1 | 45.3 |
| N#Cc1ccc(-c2cccnc2)nc1SCc1ccccc1 | 61.4 |
| Cc1ccc2c(CNCCc3ccccc3C)c(C(=O)O)n(Cc3ccccc3C)c2c1 | -0.356 |
| COc1ccc(Cn2c(SCc3cc(=O)n4ccccc4n3)nc3ncccc3c2=O)cc1 | -3.44 |
| CN(C)c1ccc(/N=c2/sc3ccccc3n2C)cc1 | -3.71 |
| O=[N+]([O-])c1ccccc1-c1nc(-c2ccccc2)nc2ccccc12 | -0.687 |
| OC(c1ccccc1)(c1ccccc1)C1CCN(c2ccc3nnc(-c4ccccc4)n3n2)CC1 | -4.85 |
| CCCCCCNS(=O)(=O)c1ccc(C)c([N+](=O)[O-])c1 | -0.807 |
| CC(NC(=O)c1ccccc1)c1nc2ccccc2n1Cc1ccccc1F (centres unmarked) | 3.49 |
| Cc1c(C(c2ccccc2F)c2c(C)n(C)n(-c3ccccc3)c2=O)c(=O)n(-c2ccccc2)n1C | -1.25 |
| CC(C(=O)O)c1cccc2c1sc1ccccc12 (centres unmarked) | 10.2 |
| COc1ccc(CCN(C)Cc2ccccc2C(F)(F)F)cc1OC | 3.85 |
| C=CC1(O)CCN(S(=O)(=O)c2ccccc2)c2cc(OC)ccc21 (centres unmarked) | 0.408 |
| O=C(Nc1ccc(S(=O)(=O)NC2CCCCC2)cc1)c1cccs1 | -12.5 |
| c1ccc2c(c1)CCN(Cc1ccc3c(c1)OCO3)C2 | 3.1 |
| CCOC(=O)C1=C(C)OC(N)=C(C#N)C1c1ccc(Cl)cc1 (centres unmarked) | -0.197 |
| COC(=O)C1=C(N)Oc2cc(C)n(Cc3ccccc3)c(=O)c2C1c1ccccc1Cl (centres unmarked) | -1.11 |
| O=S(=O)(Nc1ccc(Br)cc1F)c1cccc(C(F)(F)F)c1 | -7.33 |
| CCN1CCCC1CNC(=O)CS(=O)(=O)Cc1nc(-c2ccc(C)cc2)oc1C (centres unmarked) | -1.89 |
| CCS(=O)(=O)C1=NSC2=NC(=O)/C(=C\c3ccc(-c4cccc(Cl)c4)o3)C(=N)N21 | 5.06 |
| Cc1ccc(SCCc2ccccn2)cc1 | -3.14 |
